Data published in PubChem BioAssay (NCI).
Values joined by “and” are separate entries in the source; they are usually repeats but may differ in a detail not shown here. Equal values may be shown once.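 Cells were grown in 96-well plates and exposed to each compound for 48 hours at five concentrations; endpoints were interpolated linearly between bracketing concentrations, or set to the highest concentration if not reached. GI50 marks 50% less growth. TGI denotes the concentration required for complete inhibition of growth.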 Numbered stars: 1 amine (or outer) side, 2 acyl side, 3 side chain; on linkers, the order of the positions; unused ones are H or OH. Bridge positions count the residues as written; N and C are the ends. Square brackets hold non-standard residues; d marks the D form. Peptide text beside a SMILES is read from it. I, II: the chains in the order shown. Actinocin(1to9) = Cc1c2oc3c(C)ccc(C(=O)[*:2])c3nc-2c(C(=O)[*:1])c(N)c1=O; NMeV = CN[CH](C(=O)O)C(C)C; Sar = CNCC(=O)O

system: NCI-H322M lung; assay: inhibition of tumour cell growth, NCI panel, 48 h

SMILES	TGI	GI50
Nc1ccc2c(c1)S(=O)(=O)c1cc(N)ccc1-2	> 100 µM	
Cc1c(C=C(C#N)C#N)c(=O)n(C)c(=O)n1C	> 100 µM	
Nc1c(O)c(C(=O)O)cc2ccccc12	38.3 µM	
Cc1ccc(S(=O)(=O)NC(=O)NCC(=O)O)cc1	> 100 µM	
O=C1NC(=O)C2(CCc3ccc(N(CCCl)CCCl)cc32)N1 (stereo not drawn)	> 100 µM	
CC1CC(c2ccc([N+](=O)[O-])cc2)=Nc2ccccc2S1=O (stereo not drawn)	> 100 µM	
Cc1cccc(/C=C2\CCCCCC2=O)c1	> 100 µM	
COC(=O)CCc1c(/C=C2\N=C(c3ccc[nH]3)C=C2OC)[nH]c(C)c1C(=O)OCc1ccccc1	> 100 µM	3.87 µM
Cn1c2c(c3c(=O)[nH]ncc31)CCCc1ccccc1-2	> 100 µM	
Nc1ncnc2c1ncn2COC/C=C/I	> 100 µM	
Cc1ccc(NC(=O)CC2C(=O)Nc3ccccc3S2(=O)=O)cc1C (stereo not drawn)	> 100 µM	
COc1ccccc1NC1=NCC(C)S1 (stereo not drawn)	> 100 µM	
OCC(O)C(O)C(C=NNc1ncnc2ccc(Br)cc12)=NNc1ncnc2ccc(Br)cc12 (stereo not drawn)	45.3 µM and > 100 µM	
CC(=O)Nc1nc(C)c(-c2cc3c(c(S(C)(=O)=O)c2)C(=O)N([C@@H](C)C2CC2)C3)s1	> 100 µM	29.4 µM
N#CC12CC3(CCC1CCC1(C2)OCCO1)OCCO3 (stereo not drawn)	> 100 µM	
CC(C)Cn1cnc2c(SCc3ccccn3)nc(N)nc21	> 100 µM	
Cc1ccc(SSCCCCS(=O)O)cc1	> 100 µM	
CCC(=O)OCN1C(=O)C=CC1=O	> 100 µM	37.1 µM
C=C1CC(CC(=O)C(C)CC2CC(=C)C(=O)O2)OC1=O (stereo not drawn)	> 100 µM	
CCN1CCC(O)(/C=C/c2ccc(Cl)cc2)C(C(=O)/C=C/c2ccc(Cl)cc2)C1 (stereo not drawn)	> 100 µM	
COc1ccc(NC(C)=O)cc1N1C(=O)/C(=C\c2cccc(Oc3ccccc3)c2)SC1c1ccccc1 (stereo not drawn)	> 100 µM	
NC(N)=N/N=C/c1c(-c2ccc(Cl)cc2)nc2n1CCS2	27.2 µM	
COc1cc(OC)c2c(c1Cl)O[C@]1(C2=O)C(OCc2ccccc2)=CC(=O)C[C@H]1C	> 100 µM	7.15 µM
C=[N+](CNC(=O)CNC(=O)C(Cc1ccccc1)NC(=O)OC(C)(C)C)C(=O)CNC(=O)C(Cc1ccccc1)NC(=O)OC(C)(C)C (stereo not drawn)	> 100 µM	
CCCNC(=O)c1cc(NC(=O)c2cc(NC(=O)CCS(=O)(=O)OC)cn2C)cn1C	69.2 µM	

SMILES	TGI	GI50
CCN1C(=O)N(CC)C2C1NN=c1s/c(=C\c3cnc(C)n3C)c(=O)n12 (stereo not drawn)	> 100 µM	5.65 µM
O=C(OCc1ccccc1)c1ccccc1-c1c2ccc(=O)cc-2oc2cc(OCc3ccccc3)ccc12	> 100 µM	
C[Si](C)(C)C#CCOC=C1CC1	> 100 µM	
O=c1c2cc([N+](=O)[O-])cnc2sn1-c1ccc(Br)cc1	> 100 µM	
O[C@H]1[C@@H]2OC[C@@H](O)[C@H](OCc3ccccc3)[C@@](COCc3ccccc3)(O2)[C@@H]1OCc1ccccc1	30.3 µM	
C[C@]12CC[C@H]3[C@@H](CCC4=CC(=O)CC[C@@]43C)[C@@H]1CC[C@@H]2OC(=O)c1cccc2c(=O)c3ccccc3[nH]c12	35 µM	
O=C1C=C(OCC=C(Cl)Cl)C(=O)c2ccccc21	> 100 µM	> 100 µM
COc1cc2c3c(n(CCCN4CCN(CCO)CC4)c(=O)c2cc1OC)-c1cc2c(cc1C3=O)OCO2	> 51.6 µM	18.2 µM
CC(C)(C)OC(=O)CC(NC(=O)OC(C)(C)C)C(=O)Oc1ccc([N+](=O)[O-])cc1 (stereo not drawn)	> 100 µM	
COc1cc2c3c4c1OCc1c5c(cc(c1-4)CC3[N+](C)(C)CC2)OCO5 (stereo not drawn)	> 100 µM	
Cc1ccc2c(c1)C/C(=C\c1ccccc1C(=O)O)C2=O	> 100 µM	
Cc1ccc(NCc2nnc3c(-c4ccccc4)nc4ccccc4n23)cc1	84.8 µM	
CCNC(CCCC(NCC)P(=O)(O)O)P(=O)(O)O (stereo not drawn)	> 100 µM	
Nc1ncnc2c1ncn2C1OC(C(=O)OCCO)C(O)C1O (stereo not drawn)	> 100 µM	
COc1ccc(-c2cc3c(N)ncnc3o2)cc1	> 25 µM	> 25 µM
N=c1oc2ccc(Cl)cc2cc1C(=O)NC1CCCCC1	> 100 µM	
COc1ccc(-c2cc(-c3ccccc3)nc(N)n2)c(O)c1	> 100 µM	
Cc1ccc(C(=O)N/N=C(\N=Nc2ccccc2)c2ccc(N(CCC#N)CCC#N)cc2C)cc1	> 100 µM	
CCCNC(=O)Nc1ccc2c(c1)Cc1cc(N(CCCl)CCCl)ccc1-2	> 100 µM	
S=c1sscc1N1CCSc2ssc(=S)c21	> 100 µM	
Cc1cc(C)nc(NS(=O)(=O)c2ccc(NC(=O)c3ccc4nc5ccccc5c(Nc5ccc(S(=O)(=O)Nc6nc(C)cc(C)n6)cc5)c4c3)cc2)n1	> 100 µM	
COc1cc2c(cc1OC)C(=O)N1CCCC1C(=O)S2 (stereo not drawn)	> 100 µM	
Cc1ccc(C(=O)C(C)N)cc1C (stereo not drawn)	> 100 µM	
CCC12C=CCN3CCC4(C(=C(C(=O)OC)C1)Nc1ccccc14)[C@H]32 (stereo partly drawn)	> 100 µM	
C(=NCCN=Cc1cccc2ccccc12)c1cccc2ccccc12	> 100 µM	

SMILES	TGI	GI50
COC(=O)c1ccccc1Nc1ccccc1C(=O)OC	> 100 µM	
NC(=O)N=Nc1c2ccccc2n2[nH]ccc12	> 100 µM	
Nc1nc(Cl)c2ncn(Cc3ccc(-c4ccc(CCl)cc4)cc3)c2n1	38.4 µM	14.7 µM
Nc1nc(N)c(-c2ccc(Cl)cc2)c(/C=C/c2ccc([N+](=O)[O-])cc2)n1	> 100 µM	21.4 µM
O=c1[nH]c(Br)nc2c(N3CCCCC3)c[nH]c12	> 100 µM	
NNC(=O)N/N=C1/C(=O)N(c2ccc(Cl)c(Cl)c2)C(=O)C(=O)C1c1nc2ccccc2o1 (stereo not drawn)	> 100 µM	
CN1C(=O)C(O)C[C@@H]1c1ccc(F)cc1 (stereo partly drawn)	> 100 µM	
CCC(C)C1NC(=O)C(NC(=O)c2c3nc4c(C(=O)NC5C(=O)NC(C(C)C)C(=O)N6CCCC6C(=O)N(C)CC(=O)N(C)C(C(C)C)C(=O)OC5C)ccc(C)c4oc-3c(C)c(=O)c2N)C(C)OC(=O)C(C(C)C)N(C)C(=O)CN(C)C(=O)C2CCCN2C1=O (stereo not drawn) (I: TIP[Sar][NMeV] / II: TVP[Sar][NMeV]; ester I:1-I:C, II:1-II:C; linker I:N-II:N via Actinocin(1to9); configuration not given here)	0.499 µM	
COc1ccc(/C=C2\CC3C4CC=C5C[C@@H](O)CC[C@]5(C)C4CC[C@]3(C)C2=O)cc1OC (stereo partly drawn)	> 100 µM	
CC(=O)Oc1ccc2c3c1[C@@H]1O[C@@H]1c1cccc(c1-3)[C@@H]1O[C@H]21	19.8 µM	
CC1SC(c2cccc(Cl)c2)N(NC(=O)C(O)c2ccccc2)C1=O (stereo not drawn)	> 100 µM	> 100 µM
CC(=O)Nc1ccccc1S(=O)c1ccccc1 (stereo not drawn)	> 100 µM	
CC(C)(C)c1cc2c(O)c(c1)COCc1cc(C(C)(C)C)cc(c1O)COCc1cc(C(C)(C)C)cc(c1O)COC2	> 100 µM	
COC(=O)c1c(OC(C)=O)ccc2c1c1cc3ccccc3c(OC(C)=O)c1n2C	> 100 µM	
O=C(O)CSc1nnc2c3ccccc3c3ccccc3c2n1	> 100 µM	
Cc1cc2nc3c(C#N)c4c(c(Nc5ccc(Cl)cc5)n3c2cc1C)CCC4	> 100 µM	
CC(C)CC1NC(=O)C(C(C)C)NC(=O)CC(C)COC(=O)C(CC(C)C)N(C)C(=O)C(C(C)C)NC(=O)C(C(C)C)OC1=O (stereo not drawn)	> 50 µM	
O=C(CSCC(=O)N/N=C/c1ccncc1)N/N=C/c1ccncc1	> 100 µM	
CCOC(=O)/C=C1\C[C@H](NC(=O)OCc2ccccc2)C(=O)N1CC(=O)OCC	> 100 µM	
CC1CC/C(=C\c2ccc(F)cc2)C2=C1C(c1ccc(F)cc1)n1c(s/c(=C\c3ccc(Cl)cc3)c1=O)=N2 (stereo not drawn)	> 100 µM	
COc1ccc2c(c1)NC(=O)CN2c1nc(C)nc2ccccc12	> 100 µM	0.000904 µM
CC1CC2(C)CC(=O)C1C1C(=O)N(CCN3CCOCC3)C(=O)C12 (stereo not drawn)	> 100 µM	> 100 µM
O=C(CN1CCN(c2ccccn2)CC1)Nc1ccc(Cl)cc1C(=O)c1ccccc1Cl	> 100 µM	> 100 µM
N#CC1C(=O)NC(=O)C(C#N)C1c1ccc(Cl)c(Cl)c1 (stereo not drawn)	> 100 µM	
O=C(CC(C(=O)c1cccs1)c1ccccc1)c1ccccc1O (stereo not drawn)	> 100 µM	

SMILES	TGI	GI50
NCCNc1ncnc2ccc(Cl)cc12	> 100 µM	
CCCCCCCCCCCCCCCC(N)c1ccccc1 (stereo not drawn)	3.05 µM	1.61 µM
NS(=O)(=O)c1ccc(N=Nc2c(=O)[nH]c3ccc4[nH]cccc4c23)cc1	> 25 µM	0.817 µM
CC(C)[C@H]1NC(=O)[C@H]2N=C(O[C@@H]2C)[C@@H]2CCCN2C(=O)[C@H](Cc2ccccc2)NC(=O)[C@@H]2COC(=N2)[C@@H](Cc2ccccc2)NC(=O)[C@@H]2COC1=N2	> 100 µM	
COC(=O)/C=C/N1CC1	> 10 µM	
CCO/N=C(/CC)c1ccc(Br)s1	> 100 µM	
COc1ccc(S(=O)(=O)N/N=C/CN2C(=O)c3ccccc3C2=O)cc1	> 100 µM	
O=C(N1CCN(c2ccccc2)CC1)N(C(=O)C1(c2ccc(Cl)cc2)CCCC1)S(=O)(=O)c1ccccc1	82.7 µM	
CC(C)=C=CC(C)(C)NS(=O)(=O)NC(C)(C)C=C=C(C)C	> 100 µM	
O=c1[nH]c(=S)c2[nH]c(=O)n(-c3ccccc3)c2[nH]1	> 100 µM	
Fc1ccc(C(OCCN2CCC3CCC(C2)N3C/C=C/c2cccnc2)c2ccc(F)cc2)cc1 (stereo not drawn)	26.6 µM	
COc1ccc(-c2c(C#N)cnc(N)c2-c2nc3cc(C)c(C)cc3[nH]2)cc1	> 100 µM	15.5 µM
CC1CCC2[C@@H](C)COC3O[C@]4(C)CCC1C32OO4 (stereo partly drawn)	> 100 µM	
CC(C)[Si](OC1=CCC[C@H]2NC(=O)[C@@H](Cc3ccc([N+](=O)[O-])cc3)[C@@]12C)(C(C)C)C(C)C	27.9 µM	
C=C(C)COC(=O)COCC(=O)OCC(=C)C	> 100 µM	
COc1ccc2c(c1)O/C(=C\c1ccc([N+](=O)[O-])s1)C2=O	> 100 µM	
COc1cc[nH]c1/C=C1\C(=O)Nc2ccc([N+](=O)[O-])c(N3CC[C@@H](O)C3)c21	2.5 µM	0.46 µM
N#CCCn1c(CCC(=O)Nc2ccc(Cl)cc2Cl)n[nH]c1=S	> 100 µM	
CC(=O)c1cccc(NC(=O)/C(=N\NC(=S)NN)C2C(=O)Nc3ccccc3S2=O)c1 (stereo not drawn)	> 100 µM	
COc1ccc(/C=C/C(=O)/C=C(/C=C/c2ccc(OC)c(OC)c2OC)OB(F)F)c(OC)c1OC	> 100 µM	6.82 µM
C#CC1(O)CC(c2ccccc2)N(C)C(c2ccccc2)C1 (stereo not drawn)	> 100 µM	
CCCC(=O)Oc1cc(OC(=O)CCC)c2c(C)cc(=O)oc2c1	> 100 µM	
CC1(C)O[C@@H](CP(c2ccc3ccccc3c2)c2ccc3ccccc3c2)[C@H](CP(c2ccc3ccccc3c2)c2ccc3ccccc3c2)O1	> 100 µM	
CCCCn1c2c(n(CCCC)c1=[Se])-c1c(n(CCCC)c(=[Se])n1CCCC)S[Se][Se]S2	> 78.4 µM	
